# Test results as given in PubChem BioAssay AID624417 (National Center for Advancing Translational Sciences (NCATS), 2012).
# In all, about 410,000 compounds went through this assay and about 6,400 (1.6%) were called active. Inconclusive results, whose numbers are uncertain, are shown with a selection of clear calls. Calls follow the shape of the dose curve; as a rule, active = well fitted inhibition curve with a large enough effect; inconclusive = small, poorly fitted or top-dose-only effect; inactive = no such curve, though single readings can be large or run the other way. No potency is given beside an inconclusive call; the fits are too rough.
# Target: Glucagon-like peptide 1 receptor (Homo sapiens) (UniProt P43220)
# Assay: qHTS of GLP-1 Receptor Inverse Agonists (Inhibition Mode); also: nearly all actives have a fitted effect of over 55% in size
# Details: HEK293 GLP-1R CRE-luciferase, luminescence, 24 h, GLP-1R form is constitutively active; activity change, negative = inhibition: at 38.3 µM (top of the series) unless noted
# How it was run: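 Luminescence readout: a drop in cAMP-driven luciferase signal flags inverse agonism at a constitutively active GLP-1R stably expressed in HEK293. Compound exposure lasted 24 hr at 37 deg C, 5% CO2.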
# % is scaled to controls: 0 for no effect and ±100 for the full control effect; potency is read from the fitted curve at half-maximal effect; tags tell the direction and shape of the fitted curve.
# UniProt P43220, sequence (P43220 whole entry, looked up): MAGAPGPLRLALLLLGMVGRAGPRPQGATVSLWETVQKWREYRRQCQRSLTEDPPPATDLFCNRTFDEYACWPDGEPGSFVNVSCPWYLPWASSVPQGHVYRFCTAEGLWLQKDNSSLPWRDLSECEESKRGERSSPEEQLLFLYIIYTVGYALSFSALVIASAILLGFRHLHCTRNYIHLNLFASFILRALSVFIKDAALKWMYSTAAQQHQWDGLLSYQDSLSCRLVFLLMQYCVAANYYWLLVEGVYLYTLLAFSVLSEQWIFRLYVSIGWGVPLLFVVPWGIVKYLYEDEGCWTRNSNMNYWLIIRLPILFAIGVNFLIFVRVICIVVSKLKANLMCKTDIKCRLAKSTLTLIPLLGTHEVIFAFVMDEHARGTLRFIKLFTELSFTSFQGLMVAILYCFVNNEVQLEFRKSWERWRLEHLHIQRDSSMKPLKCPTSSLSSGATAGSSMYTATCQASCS
Structure (SMILES),Potency,"activity change, negative = inhibition"
COc1ccc(Nc2cc(C(=O)NCCCN(C)Cc3ccccc3)c3ccccc3n2)cc1OC,"inconclusive [inhibitor, single point]",
CCOC(=O)[C@]12CCC=C1N(Cc1ccc(Cl)cc1Cl)C(=O)[C@H](CC(=O)NCc1cccs1)C2,"inconclusive [inhibitor, partial curve, poor fit]",
O=S(=O)(NCCCc1ccccc1)c1ccc(F)c(F)c1,"inconclusive [inhibitor, single point]",
COc1cccc(OCc2nc3ccccc3n2Cc2ccccc2)c1,"inconclusive [inhibitor, single point]",
CC1CC(C)CN(C(=O)c2ccc3c(c2NCCO)C(=O)c2ccccc2C3=O)C1 (stereo unspecified),"inconclusive [inhibitor, partial curve, poor fit]",
COc1cccc(CNC(=O)C(=O)NCC(c2cccs2)S(=O)(=O)c2cccs2)c1 (stereo unspecified),inactive,
COc1ccc(-n2nc3cc(C)c(NC(=O)COc4cccc(C)c4)cc3n2)cc1,inactive,
COc1ccccc1NC(=O)C(=O)NCCC1CCCCN1S(=O)(=O)c1ccccc1 (stereo unspecified),"inconclusive [inhibitor, single point]",
Cc1cccc(S(=O)(=O)c2cn(Cc3ccccc3)c3cc(N4CCC(C)CC4)c(F)cc3c2=O)c1,inactive,
CC1(Cc2cc(Cl)ccc2C(F)(F)F)C(=O)Nc2ccc(S(=O)(=O)NC3CCCCC3)cc21 (stereo unspecified),"inconclusive [inhibitor, single point]",
CC1=C(C(=O)Nc2ccc(Cl)cc2)C(c2cccs2)n2nc(SCc3cccc(Cl)c3)nc2N1 (stereo unspecified),inactive,
CC(NC(=O)c1cc2cc([N+](=O)[O-])ccc2oc1=O)C1CCCO1 (stereo unspecified),,inactive: -7.31% [at 0.307 µM]
CCC(C)Sc1cc(C)c(C#N)c2nc3ccccc3n12 (stereo unspecified),inactive,
Cc1cccc(NC(=O)CSc2nnc(-c3ccccc3C)o2)c1,inactive,
O=C(COC(=O)c1cc([N+](=O)[O-])ccc1N1CCOCC1)c1ccc(Br)cc1,"inconclusive [inhibitor, partial curve, poor fit]",
CCC1=Nc2cc(C(=O)NCCc3ccccc3)ccc2Sc2ccc(Cl)cc21,"inconclusive [inhibitor, full curve, poor fit]",
CCCCOc1ccc(C(=O)NCC2(c3ccccc3)CCOCC2)cc1,"inconclusive [inhibitor, single point]",
COc1ccccc1CN(C)C(=O)c1cccc(S(=O)(=O)N2CCN(Cc3ccccc3)CC2)c1,"inconclusive [inhibitor, single point]",
CC(=O)Nc1cccc(Oc2cc(C#N)c(C#N)cc2N2CCCCCC2)c1,"inconclusive [inhibitor, partial curve, poor fit]",
COc1cc(CN2CCC(C(N)=O)CC2)ccc1OCc1ccccc1,"inconclusive [inhibitor, single point]",
Fc1ccccc1Nc1nc2ccccc2o1,"inconclusive [inhibitor, single point]",

Structure (SMILES),Potency,"activity change, negative = inhibition"
O=C(Nc1nc(-c2ccc(Cl)cc2Cl)cs1)C1CCCO1 (stereo unspecified),"inconclusive [inhibitor, single point]",
CCCOc1ccc(-c2c(C(=O)N/N=C/c3ccncc3)nnn2-c2nonc2N)cc1,inactive,
CC(=O)NC(c1ccc(F)c(F)c1)c1nc(-c2cccc(C(C)C)c2)cs1 (stereo unspecified),"inconclusive [inhibitor, single point]",
COc1cccc(/C(C)=N/Nc2ccc(S(=O)(=O)N3CCCCC3)cn2)c1,"inconclusive [inhibitor, single point]",
Cc1cn2c(=O)cc(COC(=O)c3cccc(NC(=O)C(C)Oc4ccccc4)c3)nc2s1 (stereo unspecified),inactive,
CN=c1sc2ccccc2n1CC(O)c1ccccc1 (stereo unspecified),"inconclusive [inhibitor, single point]",
CC(C)(C)OC(=O)CC[C@@H](C(=O)N1CCN(C(=O)OC(C)(C)C)CC1)n1cc(C(Cc2ccc(O)cc2)NC(=O)OC(C)(C)C)nn1 (stereo partly specified),"inconclusive [inhibitor, single point]",
Cc1ccc(NC(=O)C2(C)CCN2C(=O)c2ccccc2CCc2ccccc2)cc1C (stereo unspecified),active: 2.82 µM,
Cc1ccc(C)c(N2CCN(c3nnnn3-c3ccccc3)CC2)c1,"inconclusive [inhibitor, partial curve, poor fit]",
CC(C)c1ccc(OCC(=O)N2CCN(c3ccccn3)CC2)c(Br)c1,"inconclusive [inhibitor, single point]",
CCSC1=NC2(CCN(C(=O)NC3CCCCC3)CC2)N=C1c1ccc(C)cc1,inactive,
CCOC(=O)c1ccc(NC(=S)Nc2cccc(C)n2)cc1,inactive,
C1=C(CCNc2nnnn2-c2ccccc2)CCCC1,"inconclusive [inhibitor, partial curve, poor fit]",
Cc1cc(Cl)ccc1NC(=S)NCCc1ccc(Cl)cc1,"inconclusive [inhibitor, single point]",
C(=N\NCc1ccccc1)/c1ccc2nccnc2c1,"inconclusive [inhibitor, single point]",
Fc1ccccc1/C=N/Nc1ncnc2ccccc12,"inconclusive [inhibitor, partial curve, poor fit]",
CS(=O)(=O)N(Cc1ccccc1)c1ccc(C(=O)Nc2ccc3c(c2)OCO3)cc1,"inconclusive [inhibitor, full curve, poor fit]",
CCOC(=O)c1[nH]c(C)c(CCC(=O)Nc2cc(Cl)ccc2C)c1C,inactive,
C=CC[C@@H](CC(=O)N[C@@H](CO)Cc1ccccc1)C(=O)N[C@H](COC(=O)[C@@H](CC=C)Cc1ccc(F)cc1)Cc1ccccc1,"inconclusive [inhibitor, partial curve, poor fit]",
Cc1ccc(C2(C)NC(=O)N(CC(=O)NCc3ccccc3Cl)C2=O)cc1 (stereo unspecified),"inconclusive [inhibitor, single point]",
